Data published in article PMC10080908.
Like-named read-outs stand apart in the source and are kept apart here. Some entries of the source have several records that differ or are many. The list is limited to them. The source may hold further records. For some of these results: The values listed for one entry seem to repeat one measurement; a mean can stand among them. Entries with a single value are a further part of the results.

Target: UBXN7-UAS (UAS domain of UBXN7, aa 94-284) (human) (UniProt O94888)
UniProt O94888, sequence (O94888 94-284): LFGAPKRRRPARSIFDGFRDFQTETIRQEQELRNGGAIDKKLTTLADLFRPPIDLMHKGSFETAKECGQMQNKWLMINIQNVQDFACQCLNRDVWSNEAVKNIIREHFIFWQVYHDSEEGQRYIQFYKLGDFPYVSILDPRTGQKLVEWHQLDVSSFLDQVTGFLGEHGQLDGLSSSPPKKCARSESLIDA
Experiment: ITC; VP-ITC; 200 µM RNF111 RING domain injected (20 x 10 µl) into 10 µM UBXN7-WT or UBXN7-UAS, or into 15 µM UBXN7-∆UAS, in the cell; 25 °C; phosphate-buffered saline pH 7.4, 1 mM TCEP; single binding site model

- stoichiometry N: 1.08, 1.19, 1.05 [lines of one column]
- Kd (mean of three assays): 0.846 µM
- stoichiometry N (mean of three assays): 1.1
Substance: RNF111 RING domain (RNF111-RING, aa 895 to Cter) (domain or fragment)
- Kd: 769 nM, 901 nM, 869 nM [lines of one column]
